Assay results reported in article PMC4336329 (PLoS ONE, 2015).
Hit rate of the full screen: of about 310,000 compounds, about 2,200 (0.71%) showed an effect of 50% or more. The effect is printed as a negative number. This is one part of the list.

target: human ether-à-go-go-related gene (hERG) potassium channel (human, UniProt Q12809); experiment: primary screen, population patch clamp on CHO cells stably expressing hERG
Experimental: Briefly, Chinese hamster ovary (CHO) cells stably expressing the hERG channel were dislodged from tissue culture flasks and dispensed into PPC plates. […] During the recording, background leak currents were estimated by a 100 ms step to -80 mV from an initial holding potential of -70 mV and subtracted from the subsequent current measurement. The campaign was conducted in two phases using slight differences in recording protocol. In the first phase, the initial voltage pulse used a 100 ms step to -30 mV from a holding potential of -70 mV, a 2 s conditioning step to +25 mV, and a 2 s test step to -30 mV. During the second phase of the screen, the potential during the conditioning step was raised to +45 mV. In both phases of the campaign, a secondary voltage pulse was applied using the same parameters as the second phase initial pulse. The initial and secondary pulses were applied in the absence of compound, and upon application of 1 μM and 10 μM test concentrations. Small molecule effects on hERG current density were quantified by […].

Chain of human ether-à-go-go-related gene (hERG) potassium channel (Q12809 whole entry, looked up): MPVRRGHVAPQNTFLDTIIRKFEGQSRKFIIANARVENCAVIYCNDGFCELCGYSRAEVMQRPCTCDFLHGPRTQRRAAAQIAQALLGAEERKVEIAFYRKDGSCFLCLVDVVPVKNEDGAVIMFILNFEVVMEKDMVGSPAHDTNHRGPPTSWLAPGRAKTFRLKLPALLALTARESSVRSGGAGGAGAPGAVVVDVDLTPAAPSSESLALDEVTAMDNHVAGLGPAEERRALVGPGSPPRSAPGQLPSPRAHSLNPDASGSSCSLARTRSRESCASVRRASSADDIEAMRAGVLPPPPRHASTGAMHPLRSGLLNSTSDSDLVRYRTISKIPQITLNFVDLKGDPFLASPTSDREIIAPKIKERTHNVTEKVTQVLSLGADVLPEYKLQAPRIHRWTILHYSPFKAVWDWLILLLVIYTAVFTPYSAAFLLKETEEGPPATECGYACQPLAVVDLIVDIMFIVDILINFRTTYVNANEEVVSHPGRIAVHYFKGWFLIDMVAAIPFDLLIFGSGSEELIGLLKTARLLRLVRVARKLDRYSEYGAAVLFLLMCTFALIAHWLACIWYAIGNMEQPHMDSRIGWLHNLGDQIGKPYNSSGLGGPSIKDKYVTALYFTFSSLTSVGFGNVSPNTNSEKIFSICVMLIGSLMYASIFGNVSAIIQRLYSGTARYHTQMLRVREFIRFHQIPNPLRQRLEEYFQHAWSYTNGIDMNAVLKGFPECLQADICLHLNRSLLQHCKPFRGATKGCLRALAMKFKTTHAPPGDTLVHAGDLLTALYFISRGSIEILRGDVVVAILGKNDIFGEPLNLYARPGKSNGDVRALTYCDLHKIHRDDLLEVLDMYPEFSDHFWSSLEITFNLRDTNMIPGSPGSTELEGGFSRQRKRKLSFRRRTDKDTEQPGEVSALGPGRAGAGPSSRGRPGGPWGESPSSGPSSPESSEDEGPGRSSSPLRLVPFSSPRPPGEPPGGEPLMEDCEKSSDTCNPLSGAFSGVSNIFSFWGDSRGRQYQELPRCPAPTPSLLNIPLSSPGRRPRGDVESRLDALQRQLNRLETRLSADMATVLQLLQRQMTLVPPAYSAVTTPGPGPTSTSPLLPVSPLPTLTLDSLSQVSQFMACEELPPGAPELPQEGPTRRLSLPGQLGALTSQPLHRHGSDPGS

In order of rising “hERG current change (%, negative = inhibition) at 1uM” value:
1. COc1ccc(C)cc1NC(=O)CCN1CCN(C/C=C/c2ccccc2)CC1  -70.9%
2. C(=C\c1ccccc1)/CSc1nnc(-c2cccnc2)n1Cc1ccco1  -51.9%
3. O=C(OCc1ccccc1Cl)c1cccnc1Cl  -13.8%
4. CN(Cc1c(F)cccc1Cl)S(=O)(=O)c1cccs1  -11.5%
5. Cn1c(=O)c2c(nc(N3CCN(Cc4ccccc4)CC3)n2CCCc2ccccc2)n(C)c1=O  -9.73%
6. COc1ccc2[nH]cc(CCNS(=O)(=O)c3ccc(C)cc3)c2c1  -8.15%
7. COc1ccc(-c2nc3cc(C)ccn3c2NCc2ccc3c(c2)OCO3)cc1  -6.34%
8. COc1ccc(Oc2cccc(Cl)c2CNC(=O)CC(C)(C)CC(=O)O)cc1  -6.32%
9. C/C(=N\NC(=O)c1nc2ccccn2c1C)c1ccc2c(c1)OCO2  -6.32%
10. O=C(CCNC(=O)c1ccc([N+](=O)[O-])cc1)NCCC1=CCCCC1  -5.82%
11. COc1cc(OC)cc(C(=O)NCC2CCCN(C(=O)c3oc(C)cc3C)C2)c1 (stereo not shown)  -3.71%
12. CCN1CCN(C(c2nnnn2Cc2ccc3c(c2)OCO3)C(C)C)CC1.Cl (stereo not shown)  -1.74%
13. O=C(c1cccs1)N1CCN(c2ncc(C(F)(F)F)cc2Cl)CC1  -0.834%
14. O=C(C1CCCO1)N1CCN(C(=S)Nc2ccc(Cl)cc2Cl)CC1 (stereo not shown)  -0.516%
15. CCCCS(=O)CC(O)COc1ccc(C(C)(C)C)cc1 (stereo not shown)  -0.243%
16. CCCn1nnnc1NC(=O)c1cc(Br)ccc1OC  -0.0117%
17. Cc1cc(/C=c2/sc3nc4ccccc4n3c2=O)c(C)n1-c1ccccn1  0.357%
18. CCCCN(C(=O)COC(=O)c1nc2nccc(C)n2n1)C1CCS(=O)(=O)C1 (stereo not shown)  0.573%
19. O=C(COC(=O)c1cnccn1)c1ccc2c(c1)CCCC2  0.937%
20. CC(=O)Nc1ccc(N2C(=O)CC(N3CCSCC3)C2=O)cc1 (stereo not shown)  1.19%
21. Cc1cc(C=O)c(C)n1-c1ccc(N2CCOCC2)cc1  1.86%
22. CC(=O)N1CCN(C(=O)c2cccc(S(=O)(=O)N3CCN(c4ccccc4)CC3)c2)CC1  2.17%
23. CC(=O)N1N=C(c2ccc(NS(=O)(=O)c3ccccc3)cc2)CC1c1ccco1 (stereo not shown)  2.54%
24. Nc1ccn([C@H]2C[C@H](O)[C@@H](CO)O2)c(=O)n1.O  2.7%
25. CCOc1ccccc1N(CC(=O)NCCSc1ccccn1)S(=O)(=O)c1ccc(C)cc1  2.87%
26. O=C(NCc1cccs1)C1CCN(S(=O)(=O)c2ccc(Br)s2)CC1  3.18%
27. COc1cccc(-n2c(SC3CCOC3=O)nc3ccccc3c2=O)c1 (stereo not shown)  3.61%
28. CCOC(=O)c1c(NC(N)=O)sc(C)c1C  3.81%
29. CCCCNC(=O)COC(=O)c1ccc(NC(C)=O)cc1  4.05%
30. Cc1cc(C(=O)NNC(=O)c2ccc(C)s2)c(C)o1  4.08%
31. COc1ccc(/C=C/C(=O)N(C)Cc2cccs2)cc1S(=O)(=O)N1CCOCC1  4.47%
32. Cc1cc(NC(=O)Cn2nc(C)c([N+](=O)[O-])c2C)no1  4.75%
33. CC1(c2nnc(-c3ccc(Cl)cc3)o2)CC(c2c(Cl)cccc2Cl)=NO1 (stereo not shown)  5.03%
34. CCOC(=O)C1=C(C)C2C3C(=O)N(c4ccc(C)cc4C)C(=O)C3C1(C)C1C(=O)N(c3ccc(C)cc3C)C(=O)C21 (stereo not shown)  5.73%
35. CCOc1ccc(N(CC(=O)Nc2ccc(OC)cc2OC)S(=O)(=O)c2c(C)[nH]c(=O)[nH]c2=O)cc1  6.02%
36. CCN(CC(=O)Nc1cccc(OC)c1)CC(=O)Nc1cccc2ccccc12  6.3%
37. CC(=O)Nc1ccc(NC(=O)CSc2ccc(-c3ccc4c(c3)OCO4)nn2)cc1  6.56%
38. CC/C(=N\NC(=O)OC)c1ccc(OC(F)F)cc1  6.73%
39. CC1(C)C(=O)C2(CCCCC2)C(=O)OC1C(=O)c1ccccc1 (stereo not shown)  6.81%
40. O=C(O)C1CC=CCC1C(=O)NCCCN1CCCC1=O (stereo not shown)  7.05%
41. Cc1ccccc1C(=O)NCC(=O)NNC(=S)NC(=O)c1ccccc1  7.16%
42. CCc1cc(=O)oc2c(C)c(O[C@@H]3O[C@H](CO)[C@@H](O)[C@H](O)[C@H]3O)ccc12  7.2%
43. COc1ccc(N2CCN(C(=O)c3cn(C)c4ccc(S(=O)(=O)N5CCOCC5)cc4c3=O)CC2)cc1  7.26%
44. CN(Cc1nc2ccccc2n1C)S(C)(=O)=O  7.57%
45. CN1CC(=O)N(CC(=O)NCCc2ccc(F)cc2)c2ccccc2C1=O  7.72%
46. CCOc1ccc(S(=O)(=O)N2CCCC(C(=O)NCc3ccncc3)C2)cc1 (stereo not shown)  7.96%
47. COc1ccc(CCNC(=O)c2ccc(CNS(=O)(=O)c3ccccc3)cc2)cc1OC  8.47%
48. CCC(=O)n1nc(-c2ccc(Cl)cc2)nc1NCc1ccccc1  8.9%
49. CCC(CC)C(=O)c1c[nH]c(C(=O)NCCCN2CCOCC2)c1  8.9%
50. Cc1ccc(Cn2c(-c3nonc3N)nc3ccccc32)cc1  9.1%
51. O=S(=O)(Nc1ccc(-c2nc3ccccc3o2)cc1)c1ccccc1  9.32%
52. CC(=O)SCCC(=O)N1C(C)CCCC1C(=O)O (stereo not shown)  9.54%
53. Cc1cc(C)cc(CC2CC(=O)N(c3cc(C)ccc3C)C2=O)c1 (stereo not shown)  10.2%
54. CCC(Oc1ccccc1)C(=O)O/N=C(\N)c1ccc(OC)c(OC)c1 (stereo not shown)  10.8%
55. NC(=O)c1[nH]cnc1N  10.9%
56. Cc1cc(C)nc(NC(=NCCc2c[nH]c3ccccc23)NC(=O)C(C)(C)C)n1  11.2%
57. CCCCCn1c(=O)[nH]c2cc(C(=O)NC3CCN(Cc4ccccc4)CC3)ccc2c1=O  11.4%
58. Cc1cc2nc(C)c(Cc3ccccc3)c(=O)n2[nH]1  11.9%
59. CC(C)Cn1c(SC(C)C(=O)NCC2CCCO2)nc2ccc(Cl)cc2c1=O (stereo not shown)  12%
60. CC(=O)NC1=NC(=O)/C(=C/N2CCOCC2)S1  12.1%
61. COc1cc(NC(=O)c2ccc(C)c([N+](=O)[O-])c2)ccc1NC(=O)c1ccco1  12.2%
62. O=C(CCc1ccccc1)Nc1ccc(N2CCCCC2)cc1  12.4%
63. CCCc1nnc(NC(=O)NCCN2C(=O)C3C4C=CC(C4)C3C2=O)s1 (stereo not shown)  12.4%
64. O=C(O)C1CCC1C(=O)Nc1nc(-c2ccc(Cl)s2)cs1 (stereo not shown)  12.4%
65. COc1cc(Br)c(Br)cc1N  12.4%
66. Cc1ccccc1N1CCN(C(=O)NCc2cccc(Cl)c2)CC1  12.5%
67. CCOc1ccc(/C(O)=C2/C(=O)C(=O)N(c3ccccn3)C2c2ccc(C)cc2)c(C)c1 (stereo not shown)  12.8%
68. C=CCn1c(SCc2nc(N)nc(N(C)C)n2)nnc1-c1cccnc1  12.9%
69. C=C(C)CSc1nnc([C@@H](N)Cc2ccccc2)o1.Cl  12.9%
70. Cn1cccc1C(=O)NCC1CCCCC1  13.1%
71. CC(C)NC(=O)C1CCN(C2CCN(C(=O)c3ccc4cccc(F)c4n3)CC2)CC1  14.2%
72. O=C1[C@H]2[C@@H](c3ccc(F)cc3)N3C(=O)N(c4ccccc4)C(=O)[C@@]3(Cc3ccccc3)[C@H]2C(=O)N1C1CCCCC1  14.4%
73. CSc1ncccc1C(=O)NCCc1ccc(S(N)(=O)=O)cc1  14.5%
74. O=C(N/N=C/c1sc(N2CCOCC2)nc1-c1ccccc1)c1ccccc1F  14.7%
75. COc1ccc(-n2cnc3c(sc4nc(N5CCOCC5)c5c(c43)CCCC5)c2=O)cc1  15.2%
76. N/C(Cc1cccs1)=N\OC(=O)COc1ccccc1Cl  15.3%
77. CCc1ccccc1N(CC(=O)N1CCCCCC1)S(C)(=O)=O  15.8%
78. O=c1[nH]nc(-c2ccc(F)cc2)cc1-c1ccccc1  16.1%
79. C=CCCCCCCCCC(=O)Nc1ncccn1  16.1%
80. CC(=O)N1c2ccc(S(=O)(=O)N3CCCC(C(=O)N4CCCCC4)C3)cc2CC1C (stereo not shown)  16.2%
81. COc1ccccc1NC(=O)C(C(C)C)N1C(=O)c2ccccc2C1=O (stereo not shown)  16.7%
82. CCN(CC(=O)Nc1ccc2c(c1)OCCO2)C(=O)/C=C/c1ccc(F)cc1  16.8%
83. Cc1cc(-c2n[nH]c(=S)n2/N=C/C=C/c2ccco2)n[nH]1  17%
84. O=C(CSc1nnc(NC(=O)c2cccc(Br)c2)s1)NCC1CCCO1 (stereo not shown)  18.2%
85. Clc1ccc2c(c1)C(N1CCNCC1)=Nc1ccccc1O2  18.4%
86. Cc1cc(O)c(Sc2ccc(Cl)cc2)c(=O)[nH]1  18.7%
87. CC(C)C(NS(=O)(=O)/C=C/c1ccccc1)C(=O)NCc1ccc(F)cc1 (stereo not shown)  20.6%
88. Cc1ccc(CN2CCCN(Cc3c(C)cc(C)cc3C)S2(=O)=O)cc1  21.5%
